# The supplement of paper PMC8728848
# The other results are listed elsewhere or left out.
# How the values were obtained:
# Test in all cases: glycan array binding signal (z-score within array); higher = stronger binding
# Details in all cases: glycan notation: IUPAC condensed, linker removed; mutation: E227A
# [1] = target: Fuc(a1-2)Gal6S(b1-3)GlcNAc
# In short: (§1)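 From the Consortium for Functional Glycomics database, 3228 arrays were curated, keeping only those whose protein sequence was available. Binding is given as a within-array Z-score averaged across arrays sharing a protein sequence and across linkers. Negative Z-scores can be read as non-binding.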
# [2] = target: Fuc(a1-2)Gal6S(b1-3)GlcNAc6S
# In short: as §1
# Fuc(a1-2)Gal6S(b1-4)Glc = target: Fuc(a1-2)Gal6S(b1-4)Glc
# In short: as §1
# [3] = target: Fuc(a1-2)Gal6S(b1-4)Glc6S
# In short: as §1
# Fuc(a1-2)[Gal(a1-3)]Gal = target: Fuc(a1-2)[Gal(a1-3)]Gal
# In short: as §1
# [4] = target: Fuc(a1-2)[Gal(a1-3)]Gal(b1-3)GalNAc
# In short: as §1
# [5] = target: Fuc(a1-2)[Gal(a1-3)]Gal(b1-3)GalNAc(b1-3)Gal(a1-4)Gal(b1-4)Glc
# In short: as §1
# [6] = target: Fuc(a1-2)[Gal(a1-3)]Gal(b1-3)GlcNAc
# In short: as §1
# [7] = target: Fuc(a1-2)[Gal(a1-3)]Gal(b1-3)GlcNAc(b1-2)Man(a1-3)[Fuc(a1-2)[Gal(a1-3)]Gal(b1-3)GlcNAc(b1-2)Man(a1-6)]Man(b1-4)GlcNAc(b1-4)GlcNAc
# In short: as §1
# [8] = target: Fuc(a1-2)[Gal(a1-3)]Gal(b1-3)GlcNAc(b1-2)Man(a1-3)[Fuc(a1-2)[Gal(a1-3)]Gal(b1-3)GlcNAc(b1-2)Man(a1-6)]Man(b1-4)GlcNAc(b1-4)[Fuc(a1-6)]GlcNAc
# In short: as §1
# [9] = target: Fuc(a1-2)[Gal(a1-3)]Gal(b1-3)GlcNAc(b1-3)GalNAc
# In short: as §1
# [10] = target: Fuc(a1-2)[Gal(a1-3)]Gal(b1-3)GlcNAc(b1-6)GalNAc
# In short: as §1
# [11] = target: Fuc(a1-2)[Gal(a1-3)]Gal(b1-4)Glc
# In short: as §1
# [12] = target: Fuc(a1-2)[Gal(a1-3)]Gal(b1-4)GlcNAc
# In short: as §1
# [13] = target: Fuc(a1-2)[Gal(a1-3)]Gal(b1-4)GlcNAc(b1-2)Man
# In short: as §1
# [14] = target: Fuc(a1-2)[Gal(a1-3)]Gal(b1-4)GlcNAc(b1-2)Man(a1-3)[Fuc(a1-2)[Gal(a1-3)]Gal(b1-4)GlcNAc(b1-2)Man(a1-6)]Man(b1-4)GlcNAc(b1-4)GlcNAc
# In short: as §1
# [15] = target: Fuc(a1-2)[Gal(a1-3)]Gal(b1-4)GlcNAc(b1-2)Man(a1-3)[Fuc(a1-2)[Gal(a1-3)]Gal(b1-4)GlcNAc(b1-2)Man(a1-6)]Man(b1-4)GlcNAc(b1-4)[Fuc(a1-6)]GlcNAc
# In short: as §1
# [16] = target: Fuc(a1-2)[Gal(a1-3)]Gal(b1-4)GlcNAc(b1-3)GalNAc
# In short: as §1
# [17] = target: Fuc(a1-2)[Gal(a1-3)]Gal(b1-4)GlcNAc(b1-3)[Fuc(a1-2)[Gal(a1-3)]Gal(b1-4)GlcNAc(b1-6)]GalNAc
# In short: as §1
# [18] = target: Fuc(a1-2)[Gal(a1-3)]Gal(b1-4)GlcNAc(b1-6)GalNAc
# In short: as §1
# [19] = target: Fuc(a1-2)[Gal(a1-3)]Gal(b1-4)[Fuc(a1-3)]Glc
# In short: as §1
# [20] = target: Fuc(a1-2)[Gal(a1-3)]Gal(b1-4)[Fuc(a1-3)]GlcNAc
# In short: as §1
# [21] = target: Fuc(a1-2)[Gal(a1-3)]Gal(b1-4)[Fuc(a1-3)]GlcNAc(b1-3)GalNAc
# In short: as §1
# [22] = target: Fuc(a1-2)[Gal(a1-4)]Gal(b1-4)GlcNAc
# In short: as §1
# [23] = target: Fuc(a1-2)[GalNAc(a1-3)]Gal
# In short: as §1
# [24] = target: Fuc(a1-2)[GalNAc(a1-3)]Gal(b1-3)GalNAc(a1-3)[Fuc(a1-2)]Gal(b1-4)GlcNAc
# In short: as §1
# [25] = target: Fuc(a1-2)[GalNAc(a1-3)]Gal(b1-3)GalNAc(b1-3)Gal(a1-4)Gal(b1-4)Glc
# In short: as §1
# [26] = target: Fuc(a1-2)[GalNAc(a1-3)]Gal(b1-3)GlcNAc
# In short: as §1
# [27] = target: Fuc(a1-2)[GalNAc(a1-3)]Gal(b1-3)GlcNAc(b1-2)Man(a1-3)[Fuc(a1-2)[GalNAc(a1-3)]Gal(b1-3)GlcNAc(b1-2)Man(a1-6)]Man(b1-4)GlcNAc(b1-4)GlcNAc
# In short: as §1
# [28] = target: Fuc(a1-2)[GalNAc(a1-3)]Gal(b1-3)GlcNAc(b1-2)Man(a1-3)[Fuc(a1-2)[GalNAc(a1-3)]Gal(b1-3)GlcNAc(b1-2)Man(a1-6)]Man(b1-4)GlcNAc(b1-4)[Fuc(a1-6)]GlcNAc
# In short: as §1
# [29] = target: Fuc(a1-2)[GalNAc(a1-3)]Gal(b1-3)GlcNAc(b1-3)GalNAc
# In short: as §1
# [30] = target: Fuc(a1-2)[GalNAc(a1-3)]Gal(b1-3)GlcNAc(b1-6)GalNAc
# In short: as §1
# [31] = target: Fuc(a1-2)[GalNAc(a1-3)]Gal(b1-4)Glc
# In short: as §1
# [32] = target: Fuc(a1-2)[GalNAc(a1-3)]Gal(b1-4)GlcNAc
# In short: as §1
# [33] = target: Fuc(a1-2)[GalNAc(a1-3)]Gal(b1-4)GlcNAc(b1-2)Man
# In short: as §1
# [34] = target: Fuc(a1-2)[GalNAc(a1-3)]Gal(b1-4)GlcNAc(b1-2)Man(a1-3)[Fuc(a1-2)[GalNAc(a1-3)]Gal(b1-4)GlcNAc(b1-2)Man(a1-6)]Man(b1-4)GlcNAc(b1-4)GlcNAc
# In short: as §1
# [35] = target: Fuc(a1-2)[GalNAc(a1-3)]Gal(b1-4)GlcNAc(b1-2)Man(a1-3)[Fuc(a1-2)[GalNAc(a1-3)]Gal(b1-4)GlcNAc(b1-2)Man(a1-6)]Man(b1-4)GlcNAc(b1-4)[Fuc(a1-6)]GlcNAc
# In short: as §1
# [36] = target: Fuc(a1-2)[GalNAc(a1-3)]Gal(b1-4)GlcNAc(b1-3)Gal(b1-4)GlcNAc
# In short: as §1
# [37] = target: Fuc(a1-2)[GalNAc(a1-3)]Gal(b1-4)GlcNAc(b1-3)Gal(b1-4)GlcNAc(b1-3)Gal(b1-4)GlcNAc
# In short: as §1
# [38] = target: Fuc(a1-2)[GalNAc(a1-3)]Gal(b1-4)GlcNAc(b1-3)GalNAc
# In short: as §1
# [39] = target: Fuc(a1-2)[GalNAc(a1-3)]Gal(b1-4)GlcNAc(b1-3)[Fuc(a1-2)[GalNAc(a1-3)]Gal(b1-4)GlcNAc(b1-6)]GalNAc
# In short: as §1
# [40] = target: Fuc(a1-2)[GalNAc(a1-3)]Gal(b1-4)GlcNAc(b1-6)GalNAc
# In short: as §1
# [41] = target: Fuc(a1-2)[GalNAc(a1-3)]Gal(b1-4)[Fuc(a1-3)]GlcNAc
# In short: as §1
# [42] = target: Fuc(a1-2)[GalNAc(a1-3)]Gal(b1-4)[Fuc(a1-3)]GlcNAc(b1-3)GalNAc
# In short: as §1
# [43] = target: Fuc(a1-2)[GalNAc(a1-4)]Gal(b1-4)GlcNAc
# In short: as §1
binder,measurement,setting,value
"Epa1-NP-mutant-E227A (Candida glabrata), Q6VBJ0 (protein) MILNPALFLNKCVCIYTTLILLLLTNGGYATSSNDISLASKDPTTFPLGCSPDITTPKKGLSMELYSYDFRKKGSYPCWDAAYLDPNYPRTGYKSHRLLAKVDGVTGNINFYYHATKGCTPQLGHLPASYNYPKPLTMTNFTMLLYGYFRPKVTGFHTFTISADDLLFVNFGAGNAFDCCRRDSSADHFGNYQAYAIWGSKTAKDELTVHLDAGVYYPIRLFYNNRAYDGALSFTFKTESNENTVSDFSEYFFSLDDTEEGCPGLISYDSSCASVKTSKIIGIDYHTETPNENLVPITKTIYHLGIPCTGTTTTPLCGSGFYDPLANKCVTINTSSTSSVTKTTSHTTSKEVSFHSSISSQKTLIPKSIPSPYGPIKSQSIPTEMETSSEISSSEYAFSDVISTPSHSPYTKKHSSLNSSSYTSTVIHSLTSYSISQGIFSTSLSEQNITSKSSTDKFSTATSMSNNITQSSIIISQFSTNNENYTTTSMHTSSDKISTETLNNSISTTTSILFSNSSTILKNNTTIISSDKDTHYHPVNPTIVCSTNKTEIICASITQPSISNSNNHWSSSVLKFNSTTVRSTLPSSAGSNETSINVPFSSSTESNTSTSSTSTSNSKMVRSTLPSSAGSNETSISVPFSSSTESNTSTSSTSTSNSKMVRSTLPSSAGSNETSINVPFSSSTESNTSTSSTSTSNSKTVRSTPFSSAGIIMTSLSQRNNKSASSYASSNSKCYNTADSCRKVHSTPSYLLTSSYTSEGVDYDCSLVSTKLKINDTNCVNNKHTTKSCLKTSVTTTIPTLEIKTARKSSSNTIGLHSYPTSSPNKSISSAPIIGYISSFKTIKTASPSYQTSDLTTITTITSLNNPGSTAVENTHESNDKSRKTSSNDISSKHSVIKETKDAVESSNKSHQTNTLKCSSIIIASSSHNSYESLGGTTLTLTLSKVYSPQNNDTLPFLEISEVNPSRTVLPESSKMMQYLTSTEERNKTARNTIATNIVSISTFHFEGEGNAIRMGYTQLLLMLIGIIVMNIGT",glycan array binding signal (z-score),[1],-0.197
same,glycan array binding signal (z-score),[2],-0.202
same,glycan array binding signal (z-score),Fuc(a1-2)Gal6S(b1-4)Glc,-0.194
same,glycan array binding signal (z-score),[3],-0.214
same,glycan array binding signal (z-score),Fuc(a1-2)[Gal(a1-3)]Gal,-0.19
same,glycan array binding signal (z-score),[4],-0.205
same,glycan array binding signal (z-score),[5],-0.185
same,glycan array binding signal (z-score),[6],-0.201
same,glycan array binding signal (z-score),[7],-0.176
same,glycan array binding signal (z-score),[8],-0.212
same,glycan array binding signal (z-score),[9],-0.204
same,glycan array binding signal (z-score),[10],-0.177
same,glycan array binding signal (z-score),[11],-0.191
same,glycan array binding signal (z-score),[12],-0.206
same,glycan array binding signal (z-score),[13],-0.193
same,glycan array binding signal (z-score),[14],-0.196
same,glycan array binding signal (z-score),[15],-0.189
same,glycan array binding signal (z-score),[16],-0.204
same,glycan array binding signal (z-score),[17],-0.214
same,glycan array binding signal (z-score),[18],-0.203
same,glycan array binding signal (z-score),[19],-0.211
same,glycan array binding signal (z-score),[20],-0.176
same,glycan array binding signal (z-score),[21],-0.168
same,glycan array binding signal (z-score),[22],-0.221
same,glycan array binding signal (z-score),[23],-0.207
same,glycan array binding signal (z-score),[24],-0.225
same,glycan array binding signal (z-score),[25],-0.189
same,glycan array binding signal (z-score),[26],-0.205
same,glycan array binding signal (z-score),[27],-0.137
same,glycan array binding signal (z-score),[28],-0.164
same,glycan array binding signal (z-score),[29],-0.197
same,glycan array binding signal (z-score),[30],-0.223
same,glycan array binding signal (z-score),[31],-0.2
same,glycan array binding signal (z-score),[32],-0.19
same,glycan array binding signal (z-score),[33],-0.238
same,glycan array binding signal (z-score),[34],-0.179
same,glycan array binding signal (z-score),[35],-0.181
same,glycan array binding signal (z-score),[36],-0.211
same,glycan array binding signal (z-score),[37],-0.158
same,glycan array binding signal (z-score),[38],-0.215
same,glycan array binding signal (z-score),[39],-0.177
same,glycan array binding signal (z-score),[40],-0.201
same,glycan array binding signal (z-score),[41],-0.13
same,glycan array binding signal (z-score),[42],-0.212
same,glycan array binding signal (z-score),[43],-0.188
